Reference: the supplement of paper PMC7125110
Variants at the background level are over-represented here.

B1: glmS ribozyme (parent)
chain: AUAAAAGCGCCAGAACUACAGAAAUGUAGUUGACGAGGAGGAGGUUUAUCGAAUUUUCGGCGGAUGCCUCCAAA

Experiments:
Details in all cases: with glucosamine-6-phosphate
glucosamine-6-phosphate [1] = variants of: B1; assay: self-cleavage kobs at 40 uM GlcN6P; higher = faster cleavage; RNA array
In short: (§1)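 Over ~14 h at 37 °C, tiles were imaged as glucosamine-6-phosphate (40 μM to 10 mM) in HEPES/KCl/Mg(OAc)2 buffer flowed across sequenced MiSeq chips. The chips carried barcoded ribozyme variants transcribed in situ by E. coli RNA polymerase and tracked with a hybridised Cy3 probe. After normalisation to baseline and to non-cleaving reference variants, one- or two-exponential decay fits of per-tile medians gave kobs. kcat and KM followed from weighted Michaelis–Menten fits across concentrations.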

glucosamine-6-phosphate [2] = variants of: B1; assay: self-cleavage kobs at 10000 uM GlcN6P; higher = faster cleavage; RNA array
In short: as §1

glucosamine-6-phosphate [3] = variants of: B1; assay: self-cleavage kobs at 640 uM GlcN6P; higher = faster cleavage; RNA array
In short: as §1

glucosamine-6-phosphate [4] = variants of: B1; assay: self-cleavage kobs at 160 uM GlcN6P; higher = faster cleavage; RNA array
In short: as §1

glucosamine-6-phosphate [5] = variants of: B1; assay: self-cleavage kobs at 2500 uM GlcN6P; higher = faster cleavage; RNA array
In short: as §1

Row | Variant | self-cleavage kobs at 40 uM GlcN6P (glucosamine-6-phosphate [1]) [s⁻¹] | self-cleavage kobs at 10000 uM GlcN6P (glucosamine-6-phosphate [2]) [s⁻¹] | self-cleavage kobs at 640 uM GlcN6P (glucosamine-6-phosphate [3]) [s⁻¹] | self-cleavage kobs at 160 uM GlcN6P (glucosamine-6-phosphate [4]) [s⁻¹] | self-cleavage kobs at 2500 uM GlcN6P (glucosamine-6-phosphate [5]) [s⁻¹]
1 | U49G A53U G63A | < 1e-05 | < 1e-05 | – | – | –
2 | C8G G13A U54A G62A | – | – | < 1e-05 | < 1e-05 | –
3 | G9A A48U C50A | – | – | < 1e-05 | – | –
4 | G43C U46C | < 1e-05 | – | < 1e-05 | < 1e-05 | < 1e-05
5 | A6C A12C G29U | – | – | < 1e-05 | – | –
6 | U46A C61A | < 1e-05 | < 1e-05 | – | < 1e-05 | –
7 | C8U A33G A42U | – | – | < 1e-05 | – | –
8 | G7A C8U A15U | – | – | < 1e-05 | – | < 1e-05
9 | G62U C71U | < 1e-05 | < 1e-05 | – | < 1e-05 | –
10 | G9U A42G U46G | – | – | < 1e-05 | < 1e-05 | –
11 | G9C A14G G38C G40U | – | – | < 1e-05 | < 1e-05 | –
12 | G9U C10G C11A | – | – | < 1e-05 | – | –
13 | A42G G59C | < 1e-05 | < 1e-05 | < 1e-05 | < 1e-05 | < 1e-05
14 | A6C A15C G32C A33C C61A C68U | – | – | < 1e-05 | < 1e-05 | –
15 | G7A A14G A33G A53G | – | – | < 1e-05 | < 1e-05 | < 1e-05
16 | C8A C11U A33C A39C G41C | – | – | < 1e-05 | – | < 1e-05
17 | U56C C58G | < 1e-05 | – | – | – | –
18 | C8G G40U G51A | – | – | < 1e-05 | – | < 1e-05
19 | G43U U55C | < 1e-05 | – | – | – | –
20 | G7A C58U | – | < 1e-05 | < 1e-05 | < 1e-05 | < 1e-05
21 | G51U C58A A64U | < 1e-05 | < 1e-05 | – | < 1e-05 | –
22 | A52C G62C | < 1e-05 | – | – | – | –
23 | A52C G62U | < 1e-05 | < 1e-05 | – | < 1e-05 | –
24 | G51A A53C A64U | < 1e-05 | – | < 1e-05 | – | –
25 | C58A G63U U69C | < 1e-05 | – | – | – | –
26 | C8G C34G G59U | – | – | < 1e-05 | – | –
27 | A6G A36G U56A | – | – | < 1e-05 | < 1e-05 | < 1e-05
28 | G9A C61G G63U U65G C70A | – | – | < 1e-05 | – | < 1e-05
